Hit rate of the full screen: of about 420,000 compounds, about 64,000 (15%) were called active. The inconclusive results got no clear call from the source; some entries with a clear call stand among them for comparison. The call rests on the fitted dose curve; in most records, active means well fitted inhibition curve with a large enough effect; inconclusive means small, poorly fitted or top-dose-only effect; inactive means flat fitted curve, though single readings scatter. Potencies of inconclusive entries are left out as doubtful fits.
Test: qHTS for Inhibitors of human tyrosyl-DNA phosphodiesterase 1 (TDP1): qHTS in cells in absence of CPT; further: nearly all actives have a fitted effect of over 55% in size
Conditions: DT40 Tdp1-/- hTDP1 cells, no CPT, ATP luminescence, 48 h; series mostly up to 46.2 µM
Outline: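 Readout: luminescence from CellTiter-Glo after 30 min in the dark at RT. Cells: DT40 Tdp1-/- with stable hTDP1, 400/well. Exposure: compounds alone, ≥48 hr, 37 °C.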
With `Oc1ccc(Br)cc1/C=N/n1c(C2CCCCC2)n[nH]c1=S` the Potency was inconclusive [inhibitor, single point]. For `Cc1ccccc1CC1(CO)CCCN(C(=O)c2ccccc2Cl)C1` (stereo not given), the Potency was inconclusive [inhibitor, single point]. For `C#CCNC(=O)C1=C[C@H](c2coc3ccccc3c2=O)C[C@H](OCc2ccc(CO)cc2)O1`, the Potency was inconclusive [inhibitor, single point]. For `C#CCN1N=C(c2ccc(C)cc2)CSC1=O`, the Potency was “inactive”. With `C[C@H]1CN=C(Nc2ccccc2)N1CCCC1CCCCC1` the Potency was inconclusive [inhibitor, single point]. For `Cc1cc(C)c(C#N)c(SCC(=O)N(CCC#N)c2ccc3c(c2)OCCO3)n1`, the Potency was “inactive”. With `COc1ccccc1C(=O)Nc1nc(-c2ccc3c(c2)OCCO3)cs1` the Potency was inconclusive [inhibitor, single point]. In the case of `Cc1ccc(-n2c(=O)c3ccc(C(=O)NCc4ccccc4Cl)cc3n(CC(=O)Nc3ccc(C)cc3C)c2=O)cc1`, the Potency is reported as inconclusive [inhibitor, single point]. With `COC(=O)[C@]12CCCCC=C1N(Cc1ccc(Cl)cc1Cl)C(=O)[C@H](CC(=O)NCc1cccc(C(F)(F)F)c1)C2` the Potency was inconclusive [inhibitor, single point]. In the case of `CS(=O)(=O)Nc1ccc(C(=O)Nc2ccc3ccccc3c2)cc1`, the Potency is reported as active: 5.17 µM. For `CCOC(=O)c1[nH]c2cc(OC)c(OC)cc2c1NC(=O)CCN1CCSCC1`, the Potency was inconclusive [inhibitor, single point]. With `O=C(N/N=C/c1ccc(OCc2ccccc2)cc1)c1ccc(O)cc1` the Potency was inconclusive [inhibitor, single point]. In the case of `CCOC(=O)N1CCC(N(CCN(C)C)C(=S)Nc2cccc(C)c2)CC1`, the Potency is reported as “inactive”. With `CC(=O)N/C(=C\c1ccc(Br)s1)C(=O)O` the Potency was “inactive”. For `Cc1ccc(Nc2cc(C)nc3nncn23)c(C)c1`, the Potency was inconclusive [inhibitor, single point]. With `O=C(CN1C(=O)c2ccccc2C1=O)OCC(=O)c1ccccc1` the Potency was “inactive”. In the case of `CC1(C(=O)NS(=O)(=O)Cc2ccccc2C(F)(F)F)CCN1C(=O)c1ccccc1` (stereo not given), the Potency is reported as “inactive”. With `O=C1OC(/C(=C\Nc2ccccc2)[N+](=O)[O-])c2ccccc21` (stereo not given) the Potency was “inactive”. For `CCOC(=O)c1cccc(NC(=O)[C@H](CSCc2ccccc2)N2Cc3ccccc3C2=O)c1`, the Potency was inconclusive [inhibitor, single point]. In the case of `CCN1CCN(c2cc(SC(C)C)nc(-c3ccc(OC)cc3)n2)CC1`, the Potency is reported as inconclusive [inhibitor, single point].

From PubChem BioAssay AID686978 (National Center for Advancing Translational Sciences (NCATS), 2013)
Potency means the concentration at half of the fitted maximal effect; tags describe the fitted curve by direction and shape.
